This note sets out measurements from paper PMC4336329 (PLoS ONE, 2015).

Hit rate of the full screen: of about 310,000 compounds, about 2,200 (0.71%) showed an effect of 50% or more. The effect is printed as a negative number. Some of the results follow.

The target in the experiment is human ether-à-go-go-related gene (hERG) potassium channel (human, UniProt Q12809). In words: primary screen, population patch clamp on CHO cells stably expressing hERG.
Sequence of human ether-à-go-go-related gene (hERG) potassium channel (Q12809 whole entry, looked up): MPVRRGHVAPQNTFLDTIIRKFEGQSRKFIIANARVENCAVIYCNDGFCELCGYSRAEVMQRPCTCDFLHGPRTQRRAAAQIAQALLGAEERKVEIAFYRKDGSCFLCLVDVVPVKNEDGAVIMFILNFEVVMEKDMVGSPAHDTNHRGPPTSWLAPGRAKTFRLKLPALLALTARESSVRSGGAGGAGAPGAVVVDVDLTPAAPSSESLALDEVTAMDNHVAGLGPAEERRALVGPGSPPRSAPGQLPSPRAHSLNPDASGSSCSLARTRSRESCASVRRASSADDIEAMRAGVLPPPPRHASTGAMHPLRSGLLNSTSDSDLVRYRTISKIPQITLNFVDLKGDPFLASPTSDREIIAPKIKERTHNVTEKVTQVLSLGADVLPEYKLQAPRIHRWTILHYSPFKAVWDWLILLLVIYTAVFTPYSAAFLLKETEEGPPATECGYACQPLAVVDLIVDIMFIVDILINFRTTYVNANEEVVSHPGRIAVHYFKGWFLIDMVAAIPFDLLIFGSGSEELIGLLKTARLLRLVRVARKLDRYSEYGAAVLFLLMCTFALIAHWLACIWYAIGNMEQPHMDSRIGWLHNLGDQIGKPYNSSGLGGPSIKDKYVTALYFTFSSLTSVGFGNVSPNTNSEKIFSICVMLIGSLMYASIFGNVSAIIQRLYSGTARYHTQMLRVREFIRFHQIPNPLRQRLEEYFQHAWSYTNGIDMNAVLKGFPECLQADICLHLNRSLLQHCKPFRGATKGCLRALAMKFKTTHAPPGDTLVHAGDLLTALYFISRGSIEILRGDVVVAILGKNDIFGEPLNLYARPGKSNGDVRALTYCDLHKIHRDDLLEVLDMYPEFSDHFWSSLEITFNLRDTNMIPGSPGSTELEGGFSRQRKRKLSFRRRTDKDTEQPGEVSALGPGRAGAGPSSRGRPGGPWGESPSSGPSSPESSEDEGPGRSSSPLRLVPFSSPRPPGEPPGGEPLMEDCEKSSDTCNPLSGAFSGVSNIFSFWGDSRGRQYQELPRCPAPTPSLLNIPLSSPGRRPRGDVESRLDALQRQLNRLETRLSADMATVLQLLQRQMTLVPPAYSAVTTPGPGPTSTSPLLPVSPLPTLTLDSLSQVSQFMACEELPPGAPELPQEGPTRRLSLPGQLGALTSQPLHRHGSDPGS
For the molecule `CCCCCCOc1ccc(C(=O)NCCCn2ccnc2)cc1`, the “hERG current change (%, negative = inhibition) at 1uM” value turned out to be 2.64%.
Consider `O=C(NNC(=O)c1cccs1)c1ccc2ccccc2c1`, for which the “hERG current change (%, negative = inhibition) at 1uM” value worked out at 3.54%.
Under `COc1ccc(OCC(=O)Nc2ccc(S(=O)(=O)Nc3nc(C)cc(C)n3)cc2)cc1` stands 8.75%; under `O=C(CC1C(=O)N(Cc2ccccc2)C(=S)N1CCN1CCOCC1)Nc1ccc(F)cc1` (stereo not shown), 13.3%.
Under `C=CC[n+]1cccc(-c2cc3ccc(C)cc3[nH]2)c1.[Br-]` stands 2.95%; under `CC(=O)Nc1ccc(/C=C/c2ccc3c([N+](=O)[O-])cccc3n2)cc1`, 11.8%.
Under `COc1ccc(-c2nc3oc4cc(OC)ccc4c(=O)c3c(=O)n2Cc2ccco2)cc1` stands -2.23%; under `O=C(NCc1ccccc1)C1CCCN1S(=O)(=O)c1cccc2cccnc12` (stereo not shown), 10.5%.
With `CCn1c(NN)nc2sc3c(c2c1=O)CCC3`, the “hERG current change (%, negative = inhibition) at 1uM” value was found to be 12%.
Under `COc1ccc(NC(=O)Nc2ccc(C(=O)N3CCOCC3)cc2)c(OC)c1` stands 8.31%.
Under `O=C(c1cc(-c2cccs2)nc2ccccc12)N1CCN(c2ccccc2O)CC1` stands 10.6%.
Under `CC1=C(C(=O)NC2CCCC(C)C2C)C2(CCCCC2)OC1=O` (stereo not shown) stands 2.66%; under `COc1ccccc1-c1sc2ccccc2c1-c1ccccc1OC`, 12%.
Regarding `Cc1noc(C)c1S(=O)(=O)N1CCCC1C(=O)NC(C)(C)C` (stereo not shown), the “hERG current change (%, negative = inhibition) at 1uM” value was 0.145%.
Under `CCOC(=O)CSc1nc(COc2ccccc2)nc2ccccc12` stands 9.12%; under `O=C(COC(=O)c1ccccc1NS(=O)(=O)c1ccc(Cl)cc1)NCc1ccccc1`, 10.5%.
Under `O=c1oc2ccc(Cl)cc2cc1-c1ccccc1` stands 16.1%; under `Cc1cccc(C(=O)n2c(=S)nc3ccccn32)c1`, 3.04%; under `CCCCCC(=O)N/N=C(\C)c1ccc(N2CCCCC2)cc1`, 8.34%.
Under `CCOC(=O)N1CCC(NC(=O)C2CCN(S(=O)(=O)c3ccc4c(c3)oc(=O)n4C)CC2)CC1` stands 18.7%; under `COc1ccc(CCNC(=O)C(=O)NCc2ccc(C)cc2)cc1OC`, -0.724%.
In the case of `O=C(NCCc1ccco1)c1nn(Cc2ccccc2)c(=O)c2ccccc12`, the “hERG current change (%, negative = inhibition) at 1uM” value turned out to be 9.35%.
As for `Cc1ccc(C(=O)c2c3ccccc3[n+]([O-])n2CCC(N)=O)cc1`, the “hERG current change (%, negative = inhibition) at 1uM” value was determined as 0.352%.
Under `NS(=O)(=O)OCCCc1ccccc1` stands 8.79%; under `CC(C)C(=O)N1CCC2(CC1)Oc1ccc(F)cc1C(=O)C21CC(c2ccc(Cl)cc2)=NO1` (stereo not shown), 13.6%.
Under `CN(C)c1ccc(Nc2ccc([N+](=O)[O-])cn2)cc1` stands 21%.
Under `Nc1nnn(CC(=O)N/N=C/C=C/c2ccccc2)n1` stands 10.6%; under `Cc1cc(C)c(C)c(S(=O)(=O)NCc2ccc(C(=O)N3CCN(C)CC3)cc2)c1C`, 8.45%.
As for `C=CCn1c(CSc2nc3ccccc3s2)n[nH]c1=S`, the “hERG current change (%, negative = inhibition) at 1uM” value was found to be 7.5%.
As for `O=C(NC1CCCN(Cc2ccc(Cl)cc2)C1)c1cnc2ccccn2c1=O` (stereo not shown), the “hERG current change (%, negative = inhibition) at 1uM” value is given as 5.87%.
Under `Cc1cc(C)nc(NC(=O)c2ccc(Cl)cc2)n1` stands 7.81%; under `O=C(CN1CCCCC1)NC(=O)NC1CCCCC1`, 8.35%.
For `CCOc1ccc(OCCNC(=O)c2oc3ccccc3c2COC)cc1`, the “hERG current change (%, negative = inhibition) at 1uM” value is listed as -4.97%.
Under `O=c1ccn(CCOc2ccc(Cl)cc2)c(=O)[nH]1` stands 4.71%.
Regarding `COc1ccc(C(=O)NCC(=O)OCc2ccc(Br)cc2)cc1`, the “hERG current change (%, negative = inhibition) at 1uM” value worked out at 8.43%.
Under `O=C(CCC(=O)NC1CC1)Nc1nnc(C2CCCCC2)s1` stands 10.8%.
Under `O=C(/C=C/c1ccco1)OCC(=O)c1ccc(OC(F)F)cc1` stands 5.28%; under `COc1ccc(/C=N/NC(=O)c2cccc(NC(=O)c3ccccc3)c2)c(C(=O)O)c1OC`, 13.9%; under `Cc1ccc2nc(-c3ccccc3)cc(C(=O)Nc3cccnc3)c2c1`, 0.355%.
Under `COc1cc(C(=O)N(C)C2CCCCC2)ccc1OC1CCN(C(C)=O)CC1` stands 19.7%.
As to `O=C(c1ccco1)N1CCN(Cc2cn[nH]c2-c2cccc3ccccc23)CC1`, the “hERG current change (%, negative = inhibition) at 1uM” value was found to be 2.23%.
For the molecule `O=C1c2ccccc2C(=O)N1CCOc1ccc(F)cc1`, the “hERG current change (%, negative = inhibition) at 1uM” value is recorded as 9.76%.
Under `CCC(c1nnnn1Cc1ccc(F)cc1)N1CCN(C)CC1` (stereo not shown) stands 14.3%.
Under `O=C(N/N=C/c1ccc(-c2ccccc2C(=O)O)o1)c1cccs1` stands 6.8%.
Under `Cc1ccc(-c2nc(CSCC(=O)NCCN3CCN(Cc4ccccc4)CC3)c(C)o2)cc1` stands -27.2%.
In the case of `Cc1ccc2oc(-c3ccc(NC(=O)c4ccncc4)cc3O)nc2c1`, the “hERG current change (%, negative = inhibition) at 1uM” value turned out to be 25.9%.
Under `O=C(Nc1ccccc1C(=O)NC(Cc1ccccc1)C(=O)O)c1ccco1` (stereo not shown) stands 6.15%.
Under `Cc1cc(C)c(S(=O)(=O)N2CCN(S(=O)(=O)N3CCC(C)CC3)CC2)c(C)c1` stands 19.5%; under `COc1cc(/C=N/NC(=O)COc2ccc(-n3cnnn3)cc2)ccc1OCC(N)=O`, 12.7%.
Under `Cc1ccc(C(=O)COc2cc(O)c3c(=O)cc(-c4ccccc4)oc3c2)cc1` stands 19.9%; under `COc1ccc(C2CC(=O)C(C=NCC(C)C)=C(O)C2)cc1` (stereo not shown), 11.1%; under `CCOc1cc(/C=N/NC(=O)CCc2n[nH]c(=O)[nH]c2=O)ccc1O`, 11.4%.
Turning to `Cc1nc2ccccc2n1/N=C/c1ccc([N+](=O)[O-])s1`, the “hERG current change (%, negative = inhibition) at 1uM” value stood at 10.6%.
Under `CCN(CC)CC(=O)N1N=C(c2cccs2)CC1c1ccco1` (stereo not shown) stands -2.26%; under `Nc1nc2ccc(S(=O)(=O)c3ccc4nc(N)sc4c3)cc2s1`, 7.21%; under `COc1ccccc1NC(=S)N1CCCC1`, 4.96%.
Under `CC(C)NC(=O)c1c2c(nc3ccccc13)CCCC2` stands 7.92%; under `COC(=O)C1=C(c2cccc(C#N)c2)C[C@@H]2CC[C@H]1N2C(=O)NCCc1ccccc1`, -2.41%.
Take `COC(=O)c1ccc(Oc2nc(N3CCCCC3)nc(N3CCOCC3)n2)cc1`: the “hERG current change (%, negative = inhibition) at 1uM” value stood at 4.1%.
Under `COc1ccccc1NS(=O)(=O)c1ccc(C)c(C(N)=O)c1` stands 1.81%; under `COCCNC(=O)CSc1ccccc1C(=O)NC1CCCc2ccccc21` (stereo not shown), 12.5%.
Under `CN(C)S(=O)(=O)c1cccc(NC(=O)c2ccc(S(=O)(=O)N3CCCC3)cc2)c1` stands 6.62%; under `CCCN(/C=N/c1sc2c(c1C#N)CCCCC2)CCC`, 5.57%; under `O=S([O-])OC1CS(=O)(=O)CC1c1ccccc1.[Na+]` (stereo not shown), 13.5%.
Under `N#Cc1nc(COc2ccc(F)cc2)oc1N1CCCCC1` stands 3.71%; under `Cc1ccc2nc(NC(=O)CCNS(=O)(=O)c3ccc(Br)s3)sc2c1`, -3.66%.
Regarding `Cc1ccc(-c2nn(-c3ccc(F)cc3)cc2C(=O)N(C)CC(=O)Nc2ccc(N3CCOCC3)cc2)cc1`, the “hERG current change (%, negative = inhibition) at 1uM” value amounted to 13.2%.
Under `CCOC(=O)C1CCN(c2cc3c(cc2NC(=O)c2ccccc2Cl)n(C)c(=O)n3C)CC1` stands 4.04%.
On to `S=c1[nH]nc(-c2ccco2)n1/N=C/c1ccccn1`, for which the “hERG current change (%, negative = inhibition) at 1uM” value was 8.35%.
Under `Nc1nc(SCC(=O)Nc2ccccc2)nc2nc3c(cc12)CCCC3` stands 0.117%; under `S=C(NCc1cccnc1)Nc1ccc(Oc2ccc(Cl)cc2)cc1`, 0.337%; under `O=C(NCc1ccc2c(c1)OCO2)c1ccc2c(c1)C(=O)N(Cc1cccnc1)C2=O`, 8.7%.
As to `CCCCN(CC)CCCNC(=O)c1cc2c(=O)[nH]c3ccccc3c2s1`, the “hERG current change (%, negative = inhibition) at 1uM” value amounted to 14.9%.
For the molecule `C/C=C/c1ccc(OCC(=O)N(C)CC(=O)Nc2ccc(F)cc2)c(OC)c1`, the “hERG current change (%, negative = inhibition) at 1uM” value came to 0.626%.
Under `CCCCCCc1c(O)nc(SCCN(C)C)[nH]c1=O` stands 12%; under `Cc1ccc(OCCCCn2ccnc2)c(Cl)c1`, -8.3%; under `CCOCc1nnc(NC(=O)COc2ccc3c(c2)OCO3)s1`, 10.2%.
Under `Cc1nnc(N)nc1C` stands 12.1%; under `Cc1cccc(C)c1NC(=O)CN(C)C(=O)c1ccccc1SCC(=O)N1CCCC1`, 16.9%.
Under `CCSc1nc2sc3c(c2c(=O)n1-c1ccccc1)CCN(C)C3` stands 9.54%; under `CCCNC(=O)c1ccc(SC)cc1OC`, -6.13%; under `O=C(CN1CCN(c2ccc(F)cc2)CC1)N1CCOCC1`, 11.3%.
In the case of `CS(=O)(=O)N1CCN(CC(=O)NC2CCCCC2)CC1`, the “hERG current change (%, negative = inhibition) at 1uM” value was -0.545%.
`CC(C)Oc1ccc(Br)cc1C(=O)N/N=C/c1c[nH]c2ccccc12`: the “hERG current change (%, negative = inhibition) at 1uM” value was 10.9%.
In the case of `Cc1ccc(C)c(NC(=O)CSc2ccc(S(=O)(=O)N3CCCC3)cn2)c1`, the “hERG current change (%, negative = inhibition) at 1uM” value was 13.2%.
Under `C/C(=C\C(=O)c1ccc(Br)cc1)NNC(=O)c1ccccc1` stands 12.1%.
Under `CCC/C(O)=C1\C(=O)CC(c2ccccc2)CC1=NC` (stereo not shown) stands 7.46%.
As for `COC(=O)CC(c1ccc(C(C)C)cc1)n1cccc1` (stereo not shown), the “hERG current change (%, negative = inhibition) at 1uM” value is 12.4%.
Turning to `COC(=O)c1c(S(=O)(=O)N2CCOCC2)c(C)n(C)c1C`, the “hERG current change (%, negative = inhibition) at 1uM” value stood at 11.5%.
As to `O=C(NCc1ccncc1)NC12CC3CC(CC(C3)C1)C2`, the “hERG current change (%, negative = inhibition) at 1uM” value is given as 7.34%.
Take `Cc1[nH]c(=O)[nH]c(=O)c1S(=O)(=O)N1CCCc2ccccc21`: the “hERG current change (%, negative = inhibition) at 1uM” value is listed as 18.6%.
